Results as given in PubChem BioAssay AID1345082 (National Center for Advancing Translational Sciences (NCATS), 2018).
Out of some 94,000 compounds screened, about 4,000 (4.3%) were called active. The shares of active, inactive and inconclusive entries below differ from those in the screen. Calls follow the shape of the dose curve; as a rule, active = well fitted inhibition curve with a large enough effect; inconclusive = small, poorly fitted or top-dose-only effect; inactive = no such curve, though single readings can be large or run the other way. Where the call is inconclusive, the potency comes from a doubtful curve fit.

Test: Cytotoxic Profiling in NIH 3T3 Cell Line of Diverse Libraries Using Quantitative High-Throughput Screening; also: nearly all actives have a fitted effect of over 55% in size
Conditions: NIH 3T3 viability, CellTiter-Glo ATP luminescence, 48-72 h; series mostly up to 96.7 µM
Summary of the method: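 Mouse fibroblast NIH 3T3 cells, 400 per well, received compound via pintool and were incubated for 48 or 72 hr prior to CellTiter-Glo ATP luminescence measurement.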
Potency is read from the fitted curve at half-maximal effect; tags tell the direction and shape of the fitted curve.

Row | Structure (SMILES) | Potency
1 | Cc1csc(NC(=O)C2CC(=O)N(c3n[nH]c4cccc(F)c34)C2)n1 (configuration not stated) | inactive
2 | COc1ccc(-c2noc(Nc3ccc4c(c3)OCO4)n2)cc1 | inactive
3 | O=C(Cc1ccc(F)cc1)N1CCCC(C(=O)N2CCC(N3CCOC3=O)CC2)C1 (configuration not stated) | inactive
4 | COc1cc(CNC(=O)[C@@H]2C[C@@H](c3cccc(C(F)(F)F)c3)N(C)C2)cc(OC)c1 | inconclusive: 79.4 µM [inhibitor, partial curve, poor fit]
5 | CCOC(=O)COC1CCN(C(=O)CC2CCCC2)CC(=O)N(C)c2ccccc21 (configuration not stated) | inconclusive: 56.2 µM [inhibitor, partial curve, poor fit]
6 | CC(C)Oc1ccc2c(NC(=O)c3ccnn3C)nn(Cc3ccccc3)c2c1 | inconclusive: 50.1 µM [inhibitor, partial curve, poor fit]
7 | O=[S+]([O-])(Nc1nncs1)c1ccc2c(c1)OCCN(Cc1ccccc1)C2 | inconclusive: 22.4 µM [inhibitor, full curve, poor fit]
8 | CC1CCC2(CC1)OCC(C(=O)NCc1ccccc1)N2C(=O)c1cccc(Cl)c1 (configuration not stated) | inconclusive: 44.7 µM [inhibitor, partial curve, poor fit]
9 | COCCNC(=O)c1ccc(CC2CCN(C(=O)CN3CCCCCC3)CC2)cc1 | inconclusive: 44.7 µM [inhibitor, partial curve, poor fit]
10 | COCCNc1ncc(-c2cccc(NC(C)=O)c2)c2c1OCC2 | inconclusive: 70.8 µM [inhibitor, partial curve, poor fit]
11 | COc1ccccc1-c1cccc(C(=O)N2CCC[C@H]2C(=O)NCc2ccc(F)cc2F)c1 | inconclusive: 44.7 µM [inhibitor, partial curve, poor fit]
12 | CCOc1cccc(CN2C[C@@H]3C(=O)N(CCN4CCc5ccccc5C4)C(=O)[C@@H]3C2)c1 | inconclusive: 28.2 µM [inhibitor, partial curve, poor fit]
13 | CN1CC(=O)N(c2ccc(Cl)cc2)Cc2c(NCc3ccc(F)cc3)ncnc21 | inconclusive: 50.1 µM [inhibitor, partial curve, poor fit]
14 | COc1ccccc1-c1cc(NCCc2ccccn2)c2onc(C)c2n1 | inconclusive: 89.1 µM [inhibitor, partial curve]
15 | CN(Cc1ccc(F)cc1)C(=O)C1CCCC1 | inconclusive: 89.1 µM [inhibitor, partial curve, poor fit]
16 | CCCn1ncc(N2CCC(C(=O)N(CCCOC)Cc3ccc4c(c3)CCCN4CC)CC2)cc1=O | active: 35.5 µM
17 | CCCc1noc(CN(C)C(C(=O)O)c2ccc(OC)c(F)c2)n1 (configuration not stated) | inactive
18 | C1=C(c2nc(-c3ccc(N4CCOCC4)cc3)cc3c2ccn3Cc2cccnc2)CCOC1 | inconclusive: 44.7 µM [inhibitor, partial curve, poor fit]
19 | Cc1noc(C)c1-c1cc2c(cc(C)n2C)c(N2CCN(c3ccccn3)CC2)n1 | active: 44.7 µM
20 | O=S(=O)(NCCc1noc(-c2ccccc2)n1)c1cccs1 | inconclusive: 39.8 µM [inhibitor, partial curve]
21 | CN(Cc1ccccc1C(F)(F)F)C(=O)Cc1ccc(F)cc1 | inconclusive: 89.1 µM [inhibitor, partial curve]

Row | Structure (SMILES) | Potency
22 | Cc1ccc(C)c(NC(=O)N2c3ccccc3CC2c2nc(C3CC3)no2)c1 (configuration not stated) | inconclusive: 50.1 µM [inhibitor, partial curve, poor fit]
23 | Cc1ccc(CN2CCc3nc(C(=O)NCc4cccc(F)c4)oc3CC2)o1 | inconclusive: 100 µM [inhibitor, single point]
24 | O=C(Nc1ccc(Cl)cc1)N1CCC2(CC1)C(=O)NCN2Cc1ccc(Cl)cc1 | inconclusive: 50.1 µM [inhibitor, partial curve, poor fit]
25 | COc1ccccc1-c1cc(C(=O)NCc2cccnc2)nc2c1cnn2C | inactive
26 | COc1ccc(-c2cccc(C(=O)N3CCN(C(=O)Cc4ccccn4)CC3)c2)nn1 | inactive
27 | O=C1Cc2c(-c3ccccc3Oc3ccccc3)n[nH]c2CN1Cc1ccccc1 | inconclusive: 50.1 µM [inhibitor, full curve]
28 | COc1ncccc1-c1nccn2c(C3CN(C(=O)c4cc5ccccc5[nH]4)C3)ncc12 | inactive
29 | CC(C)NC(=O)c1ccccc1OCC1CCCN(Cc2ccncc2F)C1 (configuration not stated) | inconclusive: 50.1 µM [inhibitor, partial curve, poor fit]
30 | CCCC1(CO)CCCN(Cc2cnn(-c3cccc(F)c3)c2)C1 (configuration not stated) | inactive
31 | Cn1nc(C2CC2)cc1NC(=O)C(C)(C)C | inactive
32 | O=C(NCc1ccc(F)cc1)C1c2ccccc2C(=O)N(Cc2ccccc2)C12CCCC2 (configuration not stated) | active: 35.5 µM
33 | O=C1CC(c2ccccc2)N(Cc2ccncc2)CCCN(CC2CCCCC2)CCN1 (configuration not stated) | inconclusive: 50.1 µM [inhibitor, partial curve, poor fit]
34 | O=C(NCc1ccco1)Nc1cccc(-c2ccc(N3CCCC3)nn2)c1 | inconclusive: 44.7 µM [inhibitor, partial curve, poor fit]
35 | O=C(NCCc1ccccn1)C1CN(S(=O)(=O)c2cccnc2)CC12CCCCC2 (configuration not stated) | inconclusive: 70.8 µM [inhibitor, single point]
36 | COc1ccc(C2Cn3nnc(-c4noc(-c5cc(F)ccc5F)n4)c3CO2)cc1 (configuration not stated) | inactive
37 | Cc1noc2c(NC3CCOCC3)cc(-c3ccsc3)nc12 | inconclusive: 56.2 µM [inhibitor, partial curve, poor fit]
38 | CN(C)C(=O)N[C@@H]1CN[C@H](CO)C1 | inactive
39 | COc1ccc(F)cc1Nc1cnc2ccc(N(C)C)nn12 | inconclusive: 100 µM [inhibitor, single point]
40 | CC(C)c1noc(CC2CCN(C(=O)Cc3ccc(F)cc3)CC2)n1 | inactive
41 | CC(C)C(=O)N1CCN(c2nccc(Nc3ccccc3Cl)n2)CC1 | inconclusive: 44.7 µM [inhibitor, partial curve, poor fit]
42 | CC(=O)N1CCN(c2cc(-c3noc([C@@H]4CCCN4Cc4ccccc4)n3)ccn2)CC1 | inconclusive: 89.1 µM [inhibitor, single point]
